# Laboratory results taken from PubChem BioAssay AID1346428 (National Center for Advancing Translational Sciences (NCATS), 2018).
# Among all 48,000 compounds or so, about 1,200 (2.5%) were called active. Roughly 2% stayed inconclusive and do not appear here.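 The calls were made as follows: active = activation of at least 60% and not above a set upper limit (about 1 call in 100 departs from these limits); inconclusive = activation of 40% to 60%, or above that upper limit; inactive = activation under 40%.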 This is one part of the list.
# Biological target: Probable G-protein coupled receptor 32 (Homo sapiens) (UniProt O75388)
# Chain of UniProt O75388 (O75388 whole entry, looked up): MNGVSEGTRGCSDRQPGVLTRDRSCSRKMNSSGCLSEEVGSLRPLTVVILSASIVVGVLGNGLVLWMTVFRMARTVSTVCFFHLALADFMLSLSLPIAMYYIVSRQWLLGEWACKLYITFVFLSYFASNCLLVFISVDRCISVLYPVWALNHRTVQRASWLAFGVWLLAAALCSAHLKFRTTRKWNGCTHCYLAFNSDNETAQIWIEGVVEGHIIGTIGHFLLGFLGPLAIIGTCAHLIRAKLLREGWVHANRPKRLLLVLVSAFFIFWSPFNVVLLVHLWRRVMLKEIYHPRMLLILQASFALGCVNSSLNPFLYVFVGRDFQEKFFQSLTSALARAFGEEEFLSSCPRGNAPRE
# Test: qHTS for Agonists of Human Resolvin D1 Receptor DRV1
# Settings: CHO-K1 GPR32 beta-arrestin PathHunter luminescence, 90 min; at 76.9 µM; stronger effect = higher value; zero percent set by DMSO-only wells
# In short: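 Beta-arrestin recruitment read-out: luminescence from complemented beta-Gal in CHO-K1 GPR32 PathHunter cells, measured 1 h after detection reagent at ambient temperature following 90 min compound exposure at 37 °C; DMSO served as basal (EC0) control.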
row,SMILES,activation
1,Cc1cccc(-c2nc3c(c(SCc4ccccc4Cl)n2)Cc2c(CO)cnc(C)c2O3)c1,inactive: 8.93%
2,CC(C)CCn1c(=O)c2sccc2n2c(CCCC(=O)NC(C)C)nnc12,inactive: -6.48%
3,COc1ccc(-c2nc3cc(C)ccn3c2NC(=O)c2ccc(C)c(C)c2)cc1,inactive: -8.53%
4,CC(C)CC1N=C2c3ccccc3N=C(SCC(=O)NCCc3ccc(Cl)cc3)N2C1=O (configuration not stated),inactive: 3.9%
5,CNC(=O)CN1C(=O)c2cccnc2Sc2ccccc21,inactive: -4.1%
6,CCNC(=O)c1cnc2c(-c3ccccc3)c(C)nn2c1C,inactive: -1.71%
7,COc1ccc(-n2c(=O)c3c4c(sc3n(Cc3ccccc3Cl)c2=O)CCC4)c(OC)c1,inactive: 22.3%
8,Cc1cccc(OCC(=O)Nc2ccccc2OCc2cc(=O)n3ccccc3n2)c1,inactive: -10.4%
9,COc1cccc(CNC(=O)CN(C)S(=O)(=O)c2ccc3[nH]c4c(c3c2)CCCC4)c1,inactive: 43.1%
10,COc1cccc(-c2cc(C(F)(F)F)nc(NCCc3ccccc3)n2)c1,inactive: -35.6%
11,Cc1cccc(C)c1-n1ncc(C(=O)Nc2ccc3c(c2)OCO3)c1C1CCN(C(=O)OC(C)(C)C)CC1,inactive: -22.5%
12,Cc1ccc(CN2CCc3nc(N4CCN(c5ccccc5F)CC4)ncc3C2)cc1C,inactive: -9.63%
13,CCOc1ccccc1CNC(=O)C1CCCN(c2ncnc3onc(-c4ccc(F)cc4)c23)C1 (configuration not stated),inactive: -10.1%
14,CCCCOc1ccc(CN2C(=O)C(=O)c3cc(Br)cc(C)c32)cc1OC,inactive: -26%
15,O=C(NCc1ccccc1Cl)C1CCCN(C(=O)c2cnn(-c3ccccc3)c2-n2cccc2)C1 (configuration not stated),inactive: -15.9%
16,O=C(O)Cn1c(=O)n(Cc2ccc(Br)cc2F)c(=O)c2ccc(Cl)cc21,inactive: -22.7%
17,COc1ccccc1CCNC(=O)c1ccc2c(c1)c(C)c(C)n2Cc1ccc(Cl)cc1,inactive: -17.6%
18,Cc1ccc2c(c1)-c1nc(-c3ccc4c(c3)NC(=O)CO4)cc(-c3ccc(F)cc3)c1CO2,inactive: -0.435%
19,O=C(CSc1nnc(-c2ccc(O)cc2)o1)c1ccc(Br)cc1,inactive: 30.9%
20,COc1ccccc1C(=O)Nc1c(C(=O)N(C)Cc2ccccc2)sc2nc(C)c(Cl)c(C)c12,inactive: -27.6%
21,CCCC(CCC)C(=O)Nc1cc(-c2cn3cccnc3n2)ccc1OC,inactive: -8.84%

row,SMILES,activation
1,O=c1c(-c2ccc(Cl)cc2)c(C(F)(F)F)oc2c(CN3CCCCC3)c(O)ccc12,inactive: -3.18%
2,CCc1ccc(N2C(=O)CSC23C(=O)N(Cc2ccc(C)cc2)c2ccccc23)cc1 (configuration not stated),inactive: -12.9%
3,O=C(NCN1CCOCC1)c1cnccn1,inactive: -7.89%
4,Cc1ccccc1Nc1c(-c2ccc(Cl)s2)nc2cccc(C)n12,active: 60.8%
5,COc1ccc(Cn2cc(C(=O)c3ccc(C)cc3)c(=O)c3cc(OC)c(OC)cc32)cc1,inactive: 25.4%
6,COc1ccc(S(=O)(=O)c2c(C)c(NS(=O)(=O)c3ccccc3)cc(C)c2O)cc1,inactive: -1.7%
7,O=C(CSc1nc2c(c(=O)[nH]1)CCC2)Nc1ccccc1C(F)(F)F,inactive: 3.47%
8,Cc1oc(-c2cccc(Cl)c2)nc1CN1CCC(C(=O)NCCCN2CCN(c3ccc(F)cc3)CC2)CC1,inactive: 44.9%
9,CCn1cc(C(=O)NCc2ccccc2)c(=O)c2cc(S(=O)(=O)N3CCc4ccccc4C3)ccc21,inactive: -8.05%
10,CCOC(=O)C1CCCCN1S(=O)(=O)c1csc(C(N)=O)c1 (configuration not stated),inactive: -9.79%
11,O=C(c1ccc2c(c1)CCCC2)N1CCN(c2nc3c(F)cccc3s2)CC1,inactive: -12%
12,COc1cc(C(c2c(C)[nH][nH]c2=O)c2c(C)[nH][nH]c2=O)ccc1OC(=O)c1cccc(C)c1,inactive: -44%
13,Cc1ccc(C2=CC(c3ccccc3F)n3c(nc4ccccc43)N2)cc1C (configuration not stated),inactive: 23.2%
14,COc1ccc(CC(=O)NCc2ccc3c(c2)CCN3C(=O)c2ccccc2)cc1OC,inactive: -13.7%
15,COc1ccc(C2=NC(c3ccncc3)=Nc3ccc(Br)cc3N2)cc1,inactive: -4.07%
16,CC(N)=O,inactive: 0.222%
17,CN(C)c1ccc(-n2c(CCC(=O)O)ccc2-c2ccccc2)cc1,inactive: -16.1%
18,CN1CC[C@H](c2c(O)cc(O)c3c(=O)cc(-c4ccccc4Cl)oc23)[C@H](O)C1,inactive: -16.5%
19,CCOC(=O)C1=C(CN2CCCCC2)NC(=O)NC1c1cc(C)ccc1C (configuration not stated),inactive: -5.7%
20,CCn1cc(C(=O)N2CCN(c3ccc(F)cc3)CC2)c(=O)c2cc(S(=O)(=O)N(C)C3CCCCC3)ccc21,inactive: 2.18%
21,CCc1cccc(NC(=O)C2CCCN(S(=O)(=O)c3cccs3)C2)c1 (configuration not stated),inactive: -1.45%

row,SMILES,activation
1,CC(C)(C)c1ccc(OCCn2cc(C(=O)c3ccco3)c3ccccc32)cc1,inactive: 14%
2,COc1ccccc1N1CCN(C(CNC(=O)C(=O)NCc2ccc(C)cc2)c2cccnc2)CC1 (configuration not stated),inactive: 26.7%
3,CCOC(=O)c1ccc(NC(=O)c2oc(=O)c3ccccc3c2-c2ccccc2)cc1,inactive: -11.2%
4,Cc1cccc(Cn2c(=O)n(CC3CCC(C(=O)N4CCOCC4)CC3)c(=O)c3sccc32)c1 (configuration not stated),inactive: -3.61%
5,O=C(NCc1cccs1)c1ccc(Cn2c(SCc3cccc(F)c3)nc3cccnc32)cc1,inactive: -21.5%
6,CCCCOC(=O)c1ccc(NC(=O)Cn2nnc3sc4c(c3c2=O)CCCC4)cc1,inactive: -17.2%
7,CCc1cccc(NC(=O)C(Cc2ccccc2)NS(=O)(=O)c2ccc3c(c2)oc(=O)n3C)c1 (configuration not stated),inactive: -5.84%
8,CCOC(=O)c1c(NC(=O)c2cc3nc(-c4ccc(OC)cc4)cc(C(F)(F)F)n3n2)sc2c1CCC(C)C2 (configuration not stated),inactive: -12.7%
9,CCC(=O)N1CCc2cc(S(=O)(=O)CCC(=O)NCc3ccc(C)cc3)ccc21,inactive: 10.7%
10,COc1ccccc1-c1nc2c(c(SCC(=O)Nc3c(C)cc(C)cc3C)n1)Cc1c(CO)cnc(C)c1O2,inactive: -9.64%
11,CCOc1ccc(-c2cc(C(=O)N3CCN(S(=O)(=O)c4cc(Cl)ccc4OC)CC3)[nH]n2)cc1,inactive: -0.298%
12,CCOc1ccc(CCNC(=O)c2ccc(Nc3nc4ccccc4n4nnnc34)cc2)cc1OCC,inactive: -10.2%
13,Cc1ccc(N2C(=O)N(CC(=O)C(C)(C)C)c3ccccc3S2(=O)=O)cc1C,inactive: -5.76%
14,CCc1cccc(NC(=O)c2cc3c(=O)n(Cc4ccc(OC)cc4)ccc3nc2C)c1,inactive: -24.9%
15,CCCSc1nnc2c(n1)OC(c1sccc1C)Nc1ccccc1-2 (configuration not stated),inactive: -8.49%
16,Cc1c(Cl)cccc1NC(=O)CN1C(=O)COc2ccc(S(=O)(=O)N3CCOCC3)cc21,inactive: -16.3%
17,Cc1cc2oc(C(=O)N(Cc3ccccc3F)C3CCS(=O)(=O)C3)c(C)c2cc1Cl (configuration not stated),inactive: -30.6%
18,CCOC(=O)c1ccc(NC(=O)c2c(N3CCCC3=O)c3cc(OC)ccc3n2C)cc1,inactive: 1.66%
19,Cc1ccc(C)c(N2CCN(C(=O)Cn3ncc4ccsc4c3=O)CC2)c1,inactive: 45.6%
20,CCOc1ccc(C(=O)c2oc3ccccc3c2NC(=O)Cc2coc3cc(C)cc(C)c23)cc1,inactive: 3.23%
21,CCc1ccc(Cn2c(CNS(=O)(=O)c3ccc(F)c(Cl)c3)nc3cccnc32)cc1,inactive: -17.8%

row,SMILES,activation
1,CC(=O)N1CCCC1c1nc2ccccc2n1Cc1ccccc1 (configuration not stated),inactive: -7.15%
2,CC1=C(C(=O)OCC2CCCCC2)C(c2cccc(Cl)c2Cl)CC(=O)N1 (configuration not stated),inactive: 13.4%
3,Cc1cc(Br)ccc1NC(=O)C1CCN(S(=O)(=O)c2cccc3nsnc23)CC1,inactive: 0.106%
4,Cc1ccccc1-c1nnc(CN2CCN(c3ccccn3)CC2)o1,inactive: 11.8%
5,COc1ccc(-c2noc(-c3ccc(N4CCN(C)CC4)c([N+](=O)[O-])c3)n2)cc1OC,inactive: -4.48%
6,COCCCNC(=O)C(=O)Nc1c2c(nn1-c1cccc(Cl)c1)CSC2,inactive: -49.7%
7,CCOC(=O)c1ccc(NC(=O)N2CCOc3ccccc32)cc1,inactive: -19.4%
8,CCOc1ccc(CCNC(=O)c2cnc3sc(N4CCC(C)CC4)nn3c2=O)cc1,inactive: -5.5%
9,COC(=O)c1c(-c2cccs2)csc1NC(=O)COc1c(C)ccc(C)c1C,inactive: -14.1%
10,CNC(=O)Cn1cc(S(=O)(=O)Cc2ccccc2F)c2ccccc21,inactive: -0.492%
11,CCOc1ccccc1NC(=O)N1CCc2cc(S(=O)(=O)N3CCC(C)CC3)ccc21,inactive: -16.4%
12,COc1ccc(-c2oc3ncn4nc(COc5c(C)cccc5C)nc4c3c2-c2ccc(OC)cc2)cc1,inactive: -12.4%
13,Cc1nn(C(=O)c2ccccc2F)c(C)c1S(=O)(=O)N1CCCCCC1,inactive: 5.01%
14,CCCCCSc1nc2sc3c(c2c(=O)n1-c1ccccc1)CCN(C(C)=O)C3,inactive: 19.8%
15,Cc1ccc(Cn2c(SCc3ccc(C(=O)N4CCCCCC4)cc3)nc3ccncc32)cc1,inactive: -5.91%
16,Cc1cccc(NC(=O)c2sc(-n3nc(C)c(Cc4ccc5c(c4)OCO5)c3C)nc2C)c1C,inactive: -13.9%
17,COc1ccc(-c2noc(Cn3c(=O)c4ccccc4n(CC(=O)Nc4cccc(OC)c4)c3=O)n2)cc1,inactive: -8.21%
18,COc1ccc(CN2CCc3nc(SCC(=O)Nc4cc(C)cc(C)c4)[nH]c(=O)c3C2)cc1,inactive: 22.7%
19,COc1cc(OC)cc(N2C(=O)N(CC(=O)c3ccc(F)cc3)c3ccccc3S2(=O)=O)c1,inactive: -9.39%
